# Assay results: PubChem BioAssay AID1346428 (National Center for Advancing Translational Sciences (NCATS), 2018)
# Values joined by “and” are separate entries in the source; they are usually repeats but may differ in a detail not shown here. Equal entries are not always repeated. Out of some 48,000 compounds screened, about 1,200 (2.5%) were called active. About 2% were inconclusive and are not listed.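 How the source made its calls: active means activation of at least 60% and not above a set upper limit (about 1 call in 100 departs from these limits); inconclusive means activation of 40% to 60%, or above that upper limit; inactive means activation under 40%.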 The list shows a part of the results.
# Target: Probable G-protein coupled receptor 32 (Homo sapiens) (UniProt O75388)
# Assay: qHTS for Agonists of Human Resolvin D1 Receptor DRV1; further: 0% is about no effect
# Details: CHO-K1 GPR32 beta-arrestin PathHunter luminescence, 90 min; at 76.9 µM; hits give high values; zero percent set by DMSO-only wells
# How it was run: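 Agonism was scored as beta-arrestin recruitment to ProLink-fused GPR32 in stably transfected CHO-K1 cells, giving a chemiluminescent beta-Gal signal; compounds were incubated 90 min at 37 °C.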
# Sequence of UniProt O75388 (O75388 whole entry, looked up): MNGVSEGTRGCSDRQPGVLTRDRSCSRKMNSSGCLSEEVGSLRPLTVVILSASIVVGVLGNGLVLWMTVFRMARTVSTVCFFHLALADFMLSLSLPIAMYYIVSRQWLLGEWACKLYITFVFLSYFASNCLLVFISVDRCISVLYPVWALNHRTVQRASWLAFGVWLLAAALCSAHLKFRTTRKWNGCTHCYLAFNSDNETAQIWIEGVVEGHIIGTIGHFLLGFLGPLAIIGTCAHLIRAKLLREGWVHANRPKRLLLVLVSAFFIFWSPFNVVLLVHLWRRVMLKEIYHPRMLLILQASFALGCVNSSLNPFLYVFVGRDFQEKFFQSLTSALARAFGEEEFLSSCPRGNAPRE
row,SMILES,activation
1,CCN(c1ccccc1)c1nnc(NC(=O)Nc2ccc(C)cc2)s1,inactive: 1.31%
2,O=C(OCc1cc(=O)n2nc(-c3cccs3)sc2n1)c1ccc(F)cc1,inactive: -16.8%
3,COc1ccc(Nc2ncc3c(n2)CCN(Cc2ccc(Br)s2)C3)c(OC)c1,inactive: -16.1%
4,Cc1ccc2nc3c(cc(C#N)c(=O)n3-c3nnc(SCc4ccccc4Cl)s3)c(=O)n2c1,inactive: -7.54%
5,COc1ccc(/C=C/c2nc(C#N)c(N3CCC(C)CC3)o2)cc1OC,inactive: -26.9%
6,CCOc1ccc(C(=O)Nc2cccc(-c3nc4cccnc4s3)c2C)cc1OCC,inactive: -10.8%
7,CC(=O)N1N=C(c2ccc(C)cc2)CC1c1cn(-c2ccccc2)nc1-c1cccs1 (stereo not drawn),inactive: -5.6%
8,CSc1ccc(CCNC(=O)c2ccc(-n3c(C)cc4c3CCCC4)cc2)cc1,inactive: 15.3%
9,O=[N+]([O-])c1cccc2cn[nH]c12,inactive: -11.2%
10,CCc1ccccc1Nc1nn2c(=O)c3ccc(C(=O)NC4CCCCC4)cc3nc2s1,inactive: 1.76%
11,Cc1ccn2c(=O)c(C(=O)NCc3ccccc3Cl)c(O)nc2c1,inactive: 7.33%
12,COc1ccccc1OCC(O)CN1CCN(CC(=O)Nc2c(C)cccc2C)CC1 (stereo not drawn),inactive: 10.8% and inactive: -6.23%
13,COc1cc(OC)c(NC(=O)c2c3c(nn2C)-c2ccccc2SC3)cc1Cl,inactive: 21.8%
14,CCOC(=O)c1c(N)n(-c2cccc(C)c2C)c2nc3ccccc3nc12,inactive: 12%
15,COc1cccc(C(=O)Nc2ccc(NC(=O)c3ccc(C(C)(C)C)cc3)cc2)c1,inactive: 6.23%
16,COC(=O)C(CCSC)NC(=O)c1cc2c(n(-c3ccc(OC)cc3)c1=O)CC(C)(C)CC2=O (stereo not drawn),inactive: 0.892%
17,Cc1ccc(N2CC(NC(=O)C3CCCCC3)CC2=O)cc1C (stereo not drawn),inactive: 10.3%
18,COc1ccc(S(=O)(=O)Nc2cccc(-c3ccc(N4CCCCCC4)nn3)c2)c(OC)c1,inactive: 2.78%
19,COc1cccc2c1Oc1ncccc1N(c1ccc(C(=O)NCc3cccc(C)c3)s1)C2,inactive: -18.5%
20,CC1(C(=O)Nc2ncc(Cc3ccc(Br)cc3)s2)Cc2ccccc2C(=O)O1 (stereo not drawn),inactive: 0.83%
21,COc1cc(/C=C(\C#N)C(=O)Nc2nnc(C(F)(F)F)s2)ccc1OCc1ccc(C(F)(F)F)cc1C(F)(F)F,inactive: 9.57%

row,SMILES,activation
1,CCC(C)NC(=O)c1ccc2nc(Cc3ccccc3)oc2c1 (stereo not drawn),inactive: -10.7%
2,COc1ccc(-c2nc3scc(CCNC(=O)Cc4ccc(F)cc4)n3n2)cc1,inactive: 7.99%
3,COc1cc(OC)c(Nc2c3c(nc4nc(-c5cccs5)nn24)CCCC3)cc1Cl,inactive: -55.5%
4,CCN(c1ccccc1)S(=O)(=O)c1nnc(NC(=O)c2ccco2)s1,inactive: 22.9%
5,Cc1ccccc1-c1nnc(SCC(=O)N2CCCCC2)o1,inactive: -1.46%
6,Cc1ccc(-c2nc(CS(=O)(=O)CC(=O)Nc3cc(C)ccc3C)c(C)o2)cc1,inactive: -6.29%
7,Cn1c(=O)cc(OCC(=O)NCc2ccc(F)cc2Cl)c2ccccc21,inactive: -4.11%
8,COc1ccc(CCNC(=O)CCCn2nc(C)c3sc4ccccc4c3c2=O)cc1OC,inactive: -18.8%
9,Cc1csc2nc(COc3ccccc3NC(=O)c3ccccc3Cl)cc(=O)n12,inactive: 6.5%
10,COc1cc(CN(C(=O)COc2ccc(Cl)c(C)c2)c2ccccn2)cc(OC)c1OC,inactive: 18.4%
11,Cc1ccc(-n2ncc(C(=O)Nc3c(Cl)cccc3Cl)c2C2CCNCC2)cc1,inactive: -17.4%
12,Cc1ccc(CNC(=O)C2CCCN(c3ncnc4onc(-c5ccc(F)cc5)c34)C2)cc1 (stereo not drawn),inactive: -12.7%
13,O=C(CN1C(=O)CCSc2ccccc21)Nc1ccc(C(F)(F)F)cc1,active: 63.1%
14,CN1CC(=O)Nc2cc(C(=O)O)ccc21,inactive: -18.1%
15,COc1ccc(OC)c(NC(=O)Cn2c(=O)cc(C)c3c(C)nn(-c4cccc(Cl)c4C)c32)c1,inactive: -17.9%
16,Cc1ccc(-n2cc(C(=O)OCc3ccc(F)c(F)c3)c3ccccc3c2=O)cc1,inactive: -9.06%
17,Cc1ccccc1-c1noc(-c2nnn(-c3ccccc3C)c2N)n1,inactive: 16.1%
18,CCOC(=O)c1ccccc1NC(=O)Cn1ccn2nc(-c3ccc(OCC)cc3)cc2c1=O,inactive: 1.22%
19,CCOc1ccccc1C(=O)Nc1ccc(S(=O)(=O)N(Cc2ccccc2)c2ccccc2)cc1,inactive: -1.03%
20,CCOc1ccc(NC(=O)CN2CCN(CC(=O)Nc3ccc(F)cc3F)CC2)cc1,inactive: 2.83%
21,CCCN1Cc2cccc(C(=O)Nc3ccccc3C(=O)OC)c2C1=O,inactive: -0.981%

row,SMILES,activation
1,COc1ccc(N2CCN(C(=O)c3cnn(-c4ccc(OC)cc4)c3C3CCN(C(=O)OC(C)(C)C)CC3)CC2)cc1,inactive: -5.76%
2,COc1cc(C(=O)N2CCN(C(=O)COc3cccc(C)c3)CC2)cc(OC)c1OC,inactive: 9.44%
3,COc1ccc(Cc2nc3c4cnn(-c5cccc(F)c5)c4ncn3n2)cc1,inactive: -9.84%
4,COC(=O)c1c(NC(=O)COc2cccc(C(F)(F)F)c2)sc2c1CCCC2,inactive: 4.36%
5,Cc1cccc(C(=O)N(Cc2ccccc2F)C2CCS(=O)(=O)C2)c1 (stereo not drawn),inactive: -0.609%
6,CCCCOc1cccc(C(=O)N2CCN(CCc3ccncc3)CC2)c1,inactive: -5.57%
7,Cc1c(Cl)cccc1-c1ccc(/C=C(\C#N)c2nc3ccccc3[nH]2)o1,inactive: 14.6%
8,CCCNC(=O)N1CCCN(S(=O)(=O)c2ccc3c(ccn3CC)c2)CC1,inactive: -2.1%
9,CCN(CC)c1ccc(NS(=O)(=O)c2cc(-c3cc(C)no3)ccc2C)c(C)c1,inactive: -26.7%
10,CCN(CC)S(=O)(=O)c1ccc2c(c1)c(=O)c(C(=O)N1CCN(c3cccc(Cl)c3)CC1)cn2C,inactive: -3.91%
11,CCOc1ccccc1CNC(=O)C1CCN(c2nc3ccccc3nc2C(F)(F)F)CC1,inactive: -21.2%
12,COc1ccc(-c2n[nH]c3c2cnc2cc(OC)c(OC)cc23)cc1,inactive: 30.7%
13,Cn1c(=O)oc2cc(S(=O)(=O)NC(Cc3ccccc3)C(=O)NCc3ccccc3Cl)ccc21 (stereo not drawn),inactive: -17.1%
14,CCc1ccc(C(=O)c2cn(CC(=O)Nc3ccc4c(c3)OCO4)c3ccc(F)cc3c2=O)cc1,inactive: 8.12%
15,COc1cc(OC)c(NC(=O)c2ccc3c(c2)N(Cc2ccc(C)cc2)CCS3)cc1Cl,inactive: -14.4%
16,Cc1cccc(C2N=C(N)Nc3nc4ccccc4n32)c1 (stereo not drawn),inactive: 27.4%
17,Cc1ccc(CSC2=Nc3ccccc3C3=NC(CC(=O)NCc4ccc5c(c4)OCO5)C(=O)N23)cc1 (stereo not drawn),inactive: -9.27%
18,COc1ccc(CCCc2nnc(SCC(=O)Nc3ccc(C)cc3)o2)cc1C,inactive: -4.99%
19,Cc1ccc(-n2ncc(C(=O)NC3CCN(Cc4ccccc4)CC3)c2C2CCN(C(=O)OC(C)(C)C)CC2)cc1C,inactive: -26.9%
20,O=C(Nc1ccc2nc(SCC(=O)N3CCCc4ccccc43)sc2c1)c1ccc(Cl)cc1,inactive: -12.2%
21,CCCS(=O)(=O)Nc1cc(-c2cn3ccc(C)cc3n2)ccc1C,inactive: -11.9%

row,SMILES,activation
1,Nc1nc2c(nc(Br)n2C2OC3COP(=O)(O)O[C@@H]3C2O)c(=O)[nH]1 (stereo partly drawn),inactive: -3.86%
2,CC(Sc1nc(=O)cc(N)n1CCc1ccccc1)C(=O)Nc1cccc(Cl)c1 (stereo not drawn),inactive: -2.34%
3,COc1ccc(-n2c(=O)c3ccccc3n(Cc3ccccc3Cl)c2=O)cc1,inactive: -2.67%
4,Fc1ccc(-c2nn(-c3ccc(Cl)cc3)c3c2cnc2ccc(F)cc23)cc1,inactive: 16.8%
5,CCC(C(=O)NCCc1cc(OC)ccc1OC)n1nc(C)c2c(C)n(-c3ccccc3)nc2c1=O (stereo not drawn),inactive: -6.86%
6,CCOc1ccccc1NC(=O)Cn1c(=O)n(Cc2cccs2)c(=O)c2cccnc21,inactive: -28.8%
7,Cc1ccc(S(=O)(=O)c2nnn3c2nc(N2CCOCC2)c2sccc23)cc1C,inactive: -20%
8,Cc1ccc(Nc2sc(C(=O)c3ccc(F)cc3)c(N)c2S(=O)(=O)c2ccc(C)cc2)cc1,inactive: -33.2%
9,COc1ccccc1N1CCN(S(=O)(=O)c2c(C)sc3ncn(CC(=O)Nc4ccc(C)cc4Br)c(=O)c23)CC1,inactive: 6.87%
10,COc1ccc(C(=O)Nc2nc3n(n2)C(c2ccc(Cl)cc2)C=C(c2ccccc2)N3)cc1OC (stereo not drawn),inactive: 6.64%
11,Cc1ccc(C)c(CN2C(=O)c3ccccc3S(=O)c3ccc(C(=O)N4CCOCC4)cc32)c1 (stereo not drawn),inactive: -10.9%
12,CCOC(=O)C1=C(CN2CCN(C)CC2)NC(=O)NC1c1ccc(F)cc1 (stereo not drawn),inactive: 2.99%
13,CC(C)c1ccc(OCC(=O)NCC(c2ccc(Cl)cc2)N2CCOCC2)cc1 (stereo not drawn),inactive: -4.72%
14,CCN(Cc1ccccc1)C(=O)Cn1c(=O)n(-c2cccc(C)c2)c(=O)c2c1c1cc(OC)ccc1n2C,inactive: -6.88%
15,CC(C)NC(=O)C1CCN(C(=O)c2cnn(-c3ccccc3)c2-n2cccc2)CC1,inactive: 1.75%
16,COc1ccc(N2C(N)=C(C#N)C(c3cc(CN4CCOCC4)cs3)C3=C2CCCC3=O)cc1 (stereo not drawn),inactive: -1.43%
17,Cc1nc2c(C(=O)NCCc3ccc(Cl)cc3)cnn2c(C)c1Cc1ccc(F)cc1,inactive: -42.7%
18,COc1ccc(NS(=O)(=O)c2ccc(-n3cccn3)cc2)cc1OC,inactive: 14.2%
19,CN(C(=O)c1cc2nc(-c3ccc4c(c3)OCO4)cc(C(F)(F)F)n2n1)c1ccc(OC(F)(F)F)cc1,inactive: 7.88%
20,Cn1nc(C(=O)NCCc2ccc(Cl)cc2)c2c1-c1ccccc1SC2,inactive: -8.31%
